Source: PubChem BioAssay AID588453 (National Center for Advancing Translational Sciences (NCATS), 2011)
Screen size: about 390,000 compounds; about 4,000 (1%) were called active. Inconclusive means that the source gave no clear call. Such entries were picked first, then a sample of the others. Calls come from the whole dose curve; as a rule, active = well fitted inhibition curve with a large enough effect; inconclusive = small, poorly fitted or top-dose-only effect; inactive = no such curve, though single readings can be large or run the other way. Potencies of inconclusive entries are doubtful fits and often do not repeat.

Biological target: Thioredoxin reductase 1, cytoplasmic (Rattus norvegicus) (UniProt O89049)
Experiment: qHTS Assay for Inhibitors of Mammalian Selenoprotein Thioredoxin Reductase 1 (TrxR1): qHTS; note: nearly all actives have a fitted effect of over 65% in size
Details: recombinant rTrxR1, NADPH fluorescence consumption, selenite substrate; series mostly up to 114 µM; activity change, negative = inhibition: at the top concentration
Procedure, shortened: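 Rat TrxR1 (90 nM in the dispensed reagent) was pre-reduced with 400 uM NADPH for 5 min at room temperature, then incubated with compound for 15 min. After 400 uM selenite was added, NADPH fluorescence (Ex 340/Em 450 nm) was followed for 8 min.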
% is set by controls: 0 for no effect and ±100 for the full control effect; potency is the fitted concentration of half-maximal effect; tags give direction and shape of the fitted curve.

Chain of UniProt O89049 (O89049 whole entry, looked up): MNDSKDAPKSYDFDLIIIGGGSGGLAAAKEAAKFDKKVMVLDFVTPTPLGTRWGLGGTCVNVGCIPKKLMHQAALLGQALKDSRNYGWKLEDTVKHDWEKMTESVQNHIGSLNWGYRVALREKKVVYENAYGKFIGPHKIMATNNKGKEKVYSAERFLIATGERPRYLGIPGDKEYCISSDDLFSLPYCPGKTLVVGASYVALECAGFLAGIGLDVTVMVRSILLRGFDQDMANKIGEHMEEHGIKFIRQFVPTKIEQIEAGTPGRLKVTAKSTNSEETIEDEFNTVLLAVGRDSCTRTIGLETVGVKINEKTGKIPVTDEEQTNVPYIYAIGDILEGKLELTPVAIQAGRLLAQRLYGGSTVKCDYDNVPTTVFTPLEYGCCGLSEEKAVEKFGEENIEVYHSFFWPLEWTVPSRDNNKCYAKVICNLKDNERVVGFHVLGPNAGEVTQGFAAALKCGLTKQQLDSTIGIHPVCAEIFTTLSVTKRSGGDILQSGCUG

How did the Potency turn out when `Cc1ccc(/C=C2\C(=O)NC(=O)N(CC3CCCO3)C2=O)s1` (configuration not stated) was run?
The Potency was active: 39.8 µM.

With `CN1C(=O)N(C)C(=O)C2(Cc3cc(NC(=O)c4ccccc4Cl)ccc3N3CCCC32)C1=O` (configuration not stated) as the molecule, how does the Potency read?
The Potency was inconclusive: 79.4 µM [inhibitor, partial curve].

Which Potency does the source give for `COc1ccc(C(CNC(=O)c2cc(S(=O)(=O)N3CCCCC3)ccc2C)N2CCCC2)cc1` (configuration not stated) here?
The Potency was inconclusive: 31.6 µM [inhibitor, single point].

`COc1ccccc1CN1CCCCC1c1cccnc1` (configuration not stated) was tested. Which “activity change, negative = inhibition” value did it give?
Its value is inactive: 9.99%.

How did the Potency turn out when `CN1C(=O)C(=Cc2ccc(N3CCOCC3)o2)C(=O)N(C)C1=O` was run?
The Potency was inconclusive: 79.4 µM [inhibitor, partial curve, poor fit].

With `COc1c(C=C2C(=O)NC(=O)NC2=O)c(CCN(C)C(=O)c2ccccc2)cc2c1OCO2` as the molecule, how does the Potency read?
The Potency was active: 17.8 µM.

For `Cc1cc(Cl)ccc1C(=O)C1CCCN(Cc2ccon2)C1` (configuration not stated), which “activity change, negative = inhibition” value is on record?
The value was inactive: 8.28%.

`O=C1NC(=O)N(c2ccc(F)cc2)C(=O)/C1=C/c1ccc2c(c1)CCCN2Cc1ccccc1` was tested. Which Potency did it give?
The Potency was inconclusive: 15.8 µM [inhibitor, partial curve].

Which Potency does the source give for `CC(=NCCN1CCOCC1)c1c(O)n(-c2ccccc2C)c(=O)[nH]c1=O` here?
The Potency was inconclusive: 50.1 µM [inhibitor, partial curve].

With `O=c1cccc2n1CC1CC2CN(Cc2cccc(Cl)c2Cl)C1` (configuration not stated) as the molecule, how does the “activity change, negative = inhibition” value read?
Its value is inactive: 4.2%.

Which Potency does the source give for `Cc1nn(C2CCOC(C)(C)C2)c2c1C(c1ccc3c(c1)OCO3)SCC(=O)N2` (configuration not stated) here?
The Potency was inconclusive: 70.8 µM [inhibitor, single point].

For `N#CC(C#N)=Cc1ccc([N+](=O)[O-])c(O)c1`, which Potency is on record?
The Potency was inconclusive: 37.7 µM [inhibitor, partial curve, poor fit].

For `COc1cc(C(=O)Nc2ccc(Br)cc2C(=O)c2ccccc2Cl)cc(OC)c1OC`, which “activity change, negative = inhibition” value is on record?
The value was inactive: -13.2%.

Which “activity change, negative = inhibition” value does the source give for `c1ccc2c(c1)[nH]c1cnccc12` here?
The value was inactive: 22.4%.

For `O=C1CC(c2ccc(Br)cc2)c2c(c3ccccc3oc2=O)O1` (configuration not stated), which Potency is on record?
Its Potency is inconclusive: 0.631 µM [inhibitor, partial curve, poor fit].

Which Potency does the source give for `COCOC1CCC2C3CCC4=CC(=O)CCC4=C3C=CC12C` (configuration not stated) here?
Its Potency is active: 39.8 µM.

How did the Potency turn out when `CC(=O)n1cc(C=C2C(=O)NC(=O)NC2=O)c2ccccc21` was run?
The Potency was inconclusive: 56.2 µM [inhibitor, single point].

With `O=C1c2ccccc2C(=O)N1Cc1nc(-c2ccccc2)no1` as the molecule, how does the Potency read?
The Potency was inconclusive: 89.1 µM [inhibitor, single point].

How did the Potency turn out when `COc1ccc(N2C(=O)/C(=C/c3ccc(N(C)C)o3)C(=O)NC2=S)cc1` was run?
The Potency was inconclusive: 50.1 µM [inhibitor, partial curve].

For `CCN(CC)C(=O)c1ccc2c(c1)C1C(Cl)C(Sc3ccccc3[N+](=O)[O-])CC1C(C(=O)O)N2` (configuration not stated), which Potency is on record?
The Potency was active: 50.1 µM.

With `Nc1c(C(=O)NCc2ccco2)c2nc3ccccc3nc2n1Cc1ccccc1` as the molecule, how does the Potency read?
The Potency was inconclusive: 15.8 µM [inhibitor, single point].

Which Potency does the source give for `CCCCn1c(NS(=O)(=O)c2ccccc2)c(C(=O)OCC)c2nc3ccccc3nc21` here?
Its Potency is inconclusive: 79.4 µM [inhibitor, single point].

`CC(=NCc1ccco1)c1c(O)n(Cc2ccccc2)c(=O)[nH]c1=O` was tested. Which Potency did it give?
Its Potency is inconclusive: 12.6 µM [inhibitor, partial curve, poor fit].

For `ClCCN(CCCl)/C(=C\c1ccccc1)c1ccnc2ccccc12`, which Potency is on record?
Its Potency is inconclusive: 56.2 µM [inhibitor, partial curve].

Which Potency does the source give for `Cc1c(OC(=O)N(C)C)ccc2c1O/C(=C\c1ccco1)C2=O` here?
Its Potency is inconclusive: 89.1 µM [inhibitor, partial curve, poor fit].

For `CCn1cc(C=C2C(=O)N(C)C(=O)N(C)C2=O)c2ccccc21`, which “activity change, negative = inhibition” value is on record?
The value was inactive: 13.3%.

How did the Potency turn out when `Cn1cccc1C1CCCN1CC(=O)Nc1ccc(C#N)c(Cl)c1` (configuration not stated) was run?
Its Potency is inconclusive: 79.4 µM [inhibitor, single point].

How did the Potency turn out when `O=C(O)CCn1cc(C=C2C(=O)NC(=S)NC2=O)c(-c2cccc(Br)c2)n1` was run?
The Potency was inconclusive: 17.8 µM [inhibitor, partial curve].

For `O=C1NC(=O)N(Cc2ccc(F)cc2)C(=O)/C1=C\c1ccc(N2CCCC2)cc1`, which “activity change, negative = inhibition” value is on record?
The value was inactive: -71.1%.

How did the Potency turn out when `CCn1nc(-c2cccs2)nc2c(=O)n(C)c(=O)nc1-2` was run?
The Potency was inconclusive: 50.1 µM [inhibitor, partial curve, poor fit].

`COCCN(CCOC)S(=O)(=O)c1ccc(C(=O)Nc2sc3c(c2C(N)=O)CCCC3)cc1` was tested. Which Potency did it give?
Its Potency is inconclusive: 89.1 µM [inhibitor, single point].

For `O=C1/C(=C/c2cc([N+](=O)[O-])ccc2Cl)N2CCC1CC2`, which Potency is on record?
The Potency was inconclusive: 50.1 µM [inhibitor, partial curve].

For `C=CCNC(=S)/N=C/c1c(O)[nH]c(=O)[nH]c1=O`, which Potency is on record?
Its Potency is inconclusive: 15.8 µM [inhibitor, partial curve].

Which Potency does the source give for `COc1ccc(NC(=O)CCn2cnc3onc(-c4ccc(F)cc4)c3c2=O)cc1OC` here?
The Potency was inconclusive: 44.7 µM [inhibitor, partial curve].

Which Potency does the source give for `CN1C(=O)C(=Cc2ccccc2OCCOc2ccc([N+](=O)[O-])cc2)C(=O)N(C)C1=O` here?
Its Potency is inconclusive: 11.2 µM [inhibitor, full curve].

With `CC(=NC1CCN(Cc2ccccc2)CC1)c1c(O)n(C)c(=O)n(C)c1=O` as the molecule, how does the Potency read?
Its Potency is inconclusive: 79.4 µM [inhibitor, single point].

Which Potency does the source give for `Cc1cccc(CS(=O)(=O)Cc2ccc(C(=O)N3CCC4(CC3)OCCO4)o2)c1` here?
Its Potency is inconclusive: 35.5 µM [inhibitor, partial curve, poor fit].

How did the Potency turn out when `O=C(O)c1ccccc1-c1ccc(C=C2C(=O)N(c3ccccc3)C(=S)N(c3ccccc3)C2=O)o1` was run?
The Potency was active: 8.91 µM.

Which Potency does the source give for `O=c1c(O)c(-c2ccc(O)c(O)c2)oc2cc(O)cc(O)c12` here?
Its Potency is inconclusive: 23.8 µM [inhibitor, partial curve, poor fit].

For `CC(C)(C)NC(=O)C1CC2CCCCC2CN1` (configuration not stated), which “activity change, negative = inhibition” value is on record?
Its value is inactive: 18.6%.

With `O=C(COc1cccc(Cl)c1)N1CCN(CCc2ccncc2)CC1` as the molecule, how does the Potency read?
The Potency was inconclusive: 44.7 µM [inhibitor, partial curve].

How did the Potency turn out when `CCc1ccccc1NC(=O)CSc1nnc([C@@H](N)Cc2c[nH]c3ccccc23)o1` was run?
Its Potency is inconclusive: 89.1 µM [inhibitor, single point].
